Reference: the supplement of paper PMC3334620
In all, about 33,000 sequences were measured (“E-score (-0.5 to 0.5)”: median about -0.035, highest 2% from about 0.34 on). The list shows a part of the results.

biological target: T1, Mot3 (UniProt P54785); experiment: PBM E-score (8-mer binding enrichment) (E-score (-0.5 to 0.5)); higher = stronger / more preferred TF binding; most listed sequences are background and not binding sites; conditions: protein concentration: 200 nM; construct: GST-full length
T1 sequence: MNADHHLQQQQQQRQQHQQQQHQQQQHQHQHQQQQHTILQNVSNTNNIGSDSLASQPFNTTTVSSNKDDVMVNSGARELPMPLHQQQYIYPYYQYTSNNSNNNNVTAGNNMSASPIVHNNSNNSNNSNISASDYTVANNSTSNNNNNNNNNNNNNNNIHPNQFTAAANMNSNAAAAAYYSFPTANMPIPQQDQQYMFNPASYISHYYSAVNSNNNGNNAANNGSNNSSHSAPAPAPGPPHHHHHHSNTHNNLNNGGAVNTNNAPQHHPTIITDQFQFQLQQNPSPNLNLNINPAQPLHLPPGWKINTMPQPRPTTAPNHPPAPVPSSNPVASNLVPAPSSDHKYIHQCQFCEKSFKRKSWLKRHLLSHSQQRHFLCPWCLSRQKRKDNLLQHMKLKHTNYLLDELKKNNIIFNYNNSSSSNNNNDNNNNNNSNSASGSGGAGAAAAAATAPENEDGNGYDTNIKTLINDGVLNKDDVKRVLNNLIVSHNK
Method in brief: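 GST-tagged yeast TFs (full-length or DNA-binding domain) were made by PURExpress in vitro transcription/translation and applied at about 100-200 nM to universal all-10-mer Agilent arrays. The arrays were made double-stranded by primer extension, on fresh or once-stripped slides. Bound protein was detected with fluorescent anti-GST, and scans were normalised with masliner. Each ungapped eight-base word, pooled with its reverse complement, received an E-score (modified Wilcoxon-Mann-Whitney statistic) from the Universal PBM Analysis Suite.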

Sequence	PBM E-score
GAGTTATA	0.0732
TCGTCAGA	-0.174
GCCATACC	-0.221
CGGACTAG	-0.368
CCCTTTTA	0.0328
ACCTCCAC	-0.2
GAGGACAC	0.109
ACTGATCT	-0.0322
GCGAGAGA	-0.265
CGTTAGAG	-0.246
ATGTGGTA	0.115
GCTATCCA	-0.141
ACATGCGA	0.18
GCGGCAAC	-0.0624
CCAAGCGC	-0.14
AAAGAAGC	0.146
CCTCCTTC	-0.166
AGTTTACA	0.363
AAATCCAT	0.0755
AGCTACAG	-0.0877
ATGTGAAT	0.211
ACAGCGCA	-0.0713
ATCCGGCG	-0.221
ATACGGAT	0.0904
GAGCTTGC	-0.112

Sequence	PBM E-score
ACAATTGG	-0.256
AACATTTC	0.0869
AAGTAGCC	-0.21
GACGTGGA	-0.152
AGAGAGAC	-0.139
GCGAATTA	0.0208
CTTGCGTC	-0.102
TAAAAGGA	0.189
GGTAATCA	0.187
CCGACTCC	-0.101
CCGACCGA	-0.236
CTACCCCC	-0.27
GAGCCGCA	-0.0359
GAATCTGC	-0.0117
TCGCGGAA	-0.278
AGGTACCG	0.407
CGAATTGC	0.0526
GGACTATA	-0.12
GGACTGCC	-0.0723
ATTAGCAC	0.0726
ATGATACG	0.107
CTCTGGCC	-0.304
GTGACCAA	-0.0735
GAAGTCCC	-0.279
GACGGGAA	-0.0963

Sequence	PBM E-score
GAACCCAC	-0.105
TGTACCAA	0.146
ACCGGCCG	-0.21
AGATTTCG	-0.071
CATTTCTA	-0.092
AGAGTTGA	-0.0955
AGGATACC	-0.085
AGGCACTA	0.484
ATACGTCC	-0.0906
AGCTAGCG	-0.068
AATCAATT	0.122
AGGTGGAA	0.00021
CCTATAAG	0.122
ACAAGTCG	-0.0254
ACAGATCC	-0.0839
AAACACGT	0.318
AGTTTAGA	0.0302
CTTTATCC	0.0587
GTAACGTA	0.21
ATTGGCTA	-0.129
AATTCTAG	0.055
CTCGGCAA	-0.173
CAAGCAAC	0.00864
ACCGAAGA	-0.0606
AACTATCT	-0.0187

Sequence	PBM E-score
GTAATCAA	0.241
CTATTCGC	-0.164
GAGGTACA	0.192
AAGGGGTC	0.101
GCAGACGC	-0.172
CTCGTCGA	-0.0922
GCCTCCCC	-0.0818
AACTGAAT	0.0977
CTGAGCAC	-0.0963
AGTCCTGC	-0.0576
CCCCCTGC	-0.182
CTCGTGCC	0.195
AGGCAATG	0.476
CCCTGGCG	-0.0318
CGGCAAGC	-0.0333
ATTCATAA	0.0131
CCGCACAG	-0.183
ACAAGCCA	0.124
CAGTATCG	-0.174
ATAAACTC	0.00083
ACCTATTA	0.283
CCATGACA	0.0345
CTGCTGGA	-0.139
AGGGTGAG	-0.113
CAACTTGG	0.0338

Sequence	PBM E-score
CGACATTC	0.0467
AGAGTACT	-0.0155
ATATCCTC	-0.218
AGGGTGAC	-0.182
GACCTTAA	-0.272
CTATATCC	-0.039
CTAATGAC	0.027
CCAGAAAA	0.108
CCGTGGTA	-0.142
AACGGCCC	-0.332
CATCATAA	0.107
CAACAACG	0.0989
CCTTTAGA	0.26
CCGATAGA	-0.119
ACGGTATC	-0.0157
ATCGTGAA	-0.0691
CAGTAAAA	0.0622
ATGCGTCG	0.056
TAAGAATA	0.107
AATGATAT	0.0265
GTGCCTAA	0.49
GACGGCTA	-0.197
AGGGACAT	-0.0168
ACAGAGTG	0.0666
AGAATAAA	0.0906

Sequence	PBM E-score
CGCAATGA	0.0425
ATCAGTAA	0.215
GGTCGACC	-0.0894
CTTCTTCA	0.0251
GCAATAGC	0.119
GCAAAATA	0.185
CATGCCCG	-0.00514
CCGTACGG	-0.139
AAAGTATA	0.075
ACAGTGGG	-0.0834
ATAACGAA	0.0582
CTTGTTCA	0.264
CAAGCACA	0.0791
AATAATTG	-0.00621
CAAGGTTA	0.0762
ACCTCCGC	-0.139
CAGACCAA	-0.0946
AGCGACCG	-0.266
CAACAGGG	0.00293
AACGGCGG	-0.117
GAGATCAC	-0.0174
AGAAGTAC	-0.0556
AAAGTAAT	0.178
TGCGCAAA	-0.00825
AACACACA	0.34

Sequence	PBM E-score
GAATTAGC	-0.00518
TCACAGCA	0.0261
TGCCAGCA	-0.0159
GTCGTGAA	-0.033
GCGGTACC	-0.273
AGCGCAAT	-0.0163
AAATTACT	0.138
CTGAATTA	0.108
CTGCTAGC	-0.147
GAAAGTGA	-0.0214
AACCAGAA	0.0813
AGATCTTG	0.027
AACTCTGA	0.00225
ACTAGGAC	-0.199
CCGACCAC	-0.189
GGTTTAAA	0.109
ACGTCGAA	0.13
AAGTCCGT	-0.0474
CAGAAAGC	0.0671
ATGGTCGG	-0.114
AGTACCGC	-0.116
ATTGTCTG	0.0921
GTGCACAA	-0.097
CTGCACTA	-0.0964
AGGCATAA	0.262

Sequence	PBM E-score
CAATATAG	0.13
ACAAAAAG	0.111
CCCCTACC	-0.103
AGCCACAG	-0.229
CGATGCTC	-0.242
TAAACGGA	-0.0263
TCACTGCA	0.00217
ATGCTGAC	0.0559
ACAAGCAT	0.228
GAAGTAGA	-0.043
ACTTTGTA	0.194
CGGCCTAC	-0.202
ATCTACAC	0.375
CCCGATAG	-0.162
CTTACTGA	-0.00516
CGTTATGC	0.0748
CAATTCCA	-0.0471
CGGCTCGC	-0.198
CATTGAAG	0.0812
TTAGCGAA	0.111
GATATGTA	0.283
CCCTACTA	-0.071
CAGCAAAC	-0.0883
CGATACGA	-0.129
ATCATTTG	0.00107

Sequence	PBM E-score
GGGTAATA	0.17
AATAAGAT	-0.0605
TGGGTACA	0.0297
TAGCGTGA	-0.117
ACTTTTAT	-0.00942
GTTGCCGA	0.0551
AAGCGTCG	-0.0805
CCCTCCAG	-0.207
AACCTCGC	-0.118
GACCGAGA	-0.223
ATCGTCCC	-0.215
AGCCTACT	0.113
CCTACGCA	0.223
GCCATCAA	0.161
CGTCTTCC	-0.21
TAACTTGA	0.0969
CTCCATTA	-0.027
ACCACAAA	0.0203
CCTTAGAC	-0.0807
AATATAAT	0.152
CCGACGAC	-0.121
AAGGTGAT	0.0482
CGTGCCAG	-0.22
AGGCAGCA	0.266
CGTCTACA	0.0367

Sequence	PBM E-score
AACGGATG	-0.164
TGGCCGAA	-0.05
GTTCGGTA	0.0592
CTCTCATA	-0.0957
GCCTGCAC	0.169
ACGCGGGA	-0.062
ACCAAATA	0.212
CGCCACGA	-0.288
ACTTTGTG	0.0798
GTTACATA	0.333
ACTTCTGG	-0.0801
ATCTGAAC	-0.219
CAGCATTC	-0.153
AGTCGCTC	-0.141
CCCTAAGC	-0.288
CGTGCGCA	-0.104
CAGGGTGA	-0.136
CAAGTCTG	-0.0796
CCAACATA	0.231
CATGACAC	0.273
CGATGCTA	-0.158
TCAAGTGA	-0.127
CTACGGGC	0.0837
AAGCATTA	0.0708
AATATTGA	-0.0056

Sequence	PBM E-score
CAATGCGC	-0.116
TGGGAAAA	-0.249
TCTCAGAA	-0.0878
CCGTAGCG	-0.31
ATCATCAC	0.0244
CTGGGGAA	-0.0729
TAATTGTA	0.284
AGAACCTC	-0.139
CAGGTAGC	-0.114
CCTCATCC	-0.061
ACACCGTA	0.0343
ACTTCGCA	-0.0318
ACCGACAC	-0.0544
ACCGGGCC	-0.238
AGGTATAC	0.0727
GCTTTGAC	-0.0117
ATGCTCCA	-0.164
GAATTCGC	-0.0535
AAAAGAGG	-0.0765
CGACGCCG	-0.183
GACGTATC	-0.108
CAATCTCG	-0.0776
AAGGACGA	-0.213
TCCAACAA	0.166
ACTAACAA	0.249

Sequence	PBM E-score
TAGTAGGA	-0.0994
GACGTGCA	0.0302
CCCTACCC	-0.232
GCAAACGC	-0.0363
AATATTCG	-0.037
AGGCCTCG	-0.243
AGATGACT	-0.223
ATTTCATA	0.0365
ACTACATG	0.362
CGCGGCAA	-0.11
GTACTTGA	0.0103
CCTCGTAG	0.0397
CGGATACG	-0.0559
ATCTACGG	-0.0777
CAGTCGGC	-0.225
ACAAAGAG	-0.0148
GTCAGGCA	0.469
CCAGCCAA	-0.0801
AGCTCACT	-0.198
AGCTATCG	-0.183
CTTAACGA	-0.0262
CGTGTTGA	0.395
CGTTGCTA	-0.0303
AGTTCGTG	0.0915
AGCGGCTA	-0.132

Sequence	PBM E-score
ATTGCGCC	-0.124
AGACATAG	0.0586
TCAATGAA	0.0702
GGATCCCA	-0.258
GCACCTAC	0.245
TAGACCAA	0.0112
CAGTCAAG	0.0866
AGAACACA	0.225
AGGTTAGC	-0.047
CTATGTGA	0.143
CGAACATA	0.0848
AAAAAATC	0.0876
CAGTGATG	-0.115
ACCTGCCG	-0.0578
ACCTTCTC	-0.0576
ACTTGGAC	-0.0657
GGGGGGAC	-0.254
CCGCTGAG	-0.213
CCAGTGGC	-0.148
TAAAATGA	0.144
GGGCTGAC	-0.119
AAGTAGAG	-0.122
CTATTACC	0.142
ACGGGTAC	-0.0236
ACACATCT	0.287

Sequence	PBM E-score
CCCACTAA	-0.103
AATAAGTG	-0.0601
AGCTTCTA	-0.162
AAGGTCGG	-0.169
ATGACCCC	-0.15
AGAAATGA	-0.0307
TACCAGAA	0.012
CGTTCGAC	-0.112
ACCGACTC	-0.169
AAGGTTAC	0.0496
AAATGGCT	-0.0906
ATTCAATG	-0.0471
TACAGCGA	-0.184
CGGGTGTA	0.0975
GCTTTCCC	-0.345
CTTGTACC	0.176
AGCTCGTA	-0.0445
TGCATGCA	0.157
ATCGTCTC	-0.198
